The results in this text go back to PMC4336329 (PLoS ONE, 2015).

The structures appear in SMILES notation. Among all 310,000 compounds or so, about 2,200 (0.71%) showed an effect of 50% or more. Effects have a minus sign here. Some of the results follow.

For the test, the target named is human ether-à-go-go-related gene (hERG) potassium channel (human, UniProt Q12809). Kind of test: primary screen, population patch clamp on CHO cells stably expressing hERG.
human ether-à-go-go-related gene (hERG) potassium channel, sequence (Q12809 whole entry, looked up): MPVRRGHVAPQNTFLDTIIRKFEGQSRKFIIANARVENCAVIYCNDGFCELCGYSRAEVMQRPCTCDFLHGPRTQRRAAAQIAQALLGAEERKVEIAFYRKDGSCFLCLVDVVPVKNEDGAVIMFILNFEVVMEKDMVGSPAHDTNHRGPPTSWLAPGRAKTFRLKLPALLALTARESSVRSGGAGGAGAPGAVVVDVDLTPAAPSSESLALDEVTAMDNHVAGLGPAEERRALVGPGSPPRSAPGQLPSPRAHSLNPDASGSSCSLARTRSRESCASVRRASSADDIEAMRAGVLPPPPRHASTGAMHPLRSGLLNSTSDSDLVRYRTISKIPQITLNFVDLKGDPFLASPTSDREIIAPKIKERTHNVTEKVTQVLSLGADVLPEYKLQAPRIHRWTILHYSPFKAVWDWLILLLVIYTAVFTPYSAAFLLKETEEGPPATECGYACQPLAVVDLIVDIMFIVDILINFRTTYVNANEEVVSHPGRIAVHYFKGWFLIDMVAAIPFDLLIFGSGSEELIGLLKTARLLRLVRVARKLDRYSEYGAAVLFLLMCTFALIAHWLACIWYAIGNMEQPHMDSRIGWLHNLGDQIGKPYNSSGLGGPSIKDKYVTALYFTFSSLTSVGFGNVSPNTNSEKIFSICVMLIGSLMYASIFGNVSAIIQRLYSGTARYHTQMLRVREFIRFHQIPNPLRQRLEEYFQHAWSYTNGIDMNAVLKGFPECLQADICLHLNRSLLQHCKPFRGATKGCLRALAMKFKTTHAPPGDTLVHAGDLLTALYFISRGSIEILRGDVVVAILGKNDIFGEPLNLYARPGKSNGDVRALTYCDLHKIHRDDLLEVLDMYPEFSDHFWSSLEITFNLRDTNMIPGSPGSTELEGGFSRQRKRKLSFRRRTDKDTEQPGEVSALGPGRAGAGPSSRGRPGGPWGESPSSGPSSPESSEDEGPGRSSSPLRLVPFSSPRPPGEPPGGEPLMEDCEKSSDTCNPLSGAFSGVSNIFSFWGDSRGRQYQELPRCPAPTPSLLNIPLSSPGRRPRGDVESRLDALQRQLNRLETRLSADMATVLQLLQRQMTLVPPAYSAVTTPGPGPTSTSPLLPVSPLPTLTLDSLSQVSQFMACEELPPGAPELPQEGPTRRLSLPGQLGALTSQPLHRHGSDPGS
As for `O=C(C[n+]1cccc(NC(=O)c2ccccc2)c1)c1ccc(NC(=O)c2ccccc2)cc1.[Br-]`, the “hERG current change (%, negative = inhibition) at 1uM” value was 4.65%.
Take `CCCC(NC(=O)c1c(C)noc1C)C12CC3CC(CC(C3)C1)C2` (stereo not drawn): the “hERG current change (%, negative = inhibition) at 1uM” value is recorded as -0.331%.
Consider `COc1ccc(/C=C2\CN(Cc3ccccc3)C/C(=C\c3ccc(OC)cc3OC)C2=O)c(OC)c1`, for which the “hERG current change (%, negative = inhibition) at 1uM” value is 18.2%.
In the case of `Nc1cc(N)nc(SCc2cc([N+](=O)[O-])cc3c2OCOC3)n1` it was -3.37%; in that of `CC(=O)c1cccc(NC(=O)NC2CC3CCCC(C2)N3CC(C)C)c1` (stereo not drawn), -1.26%.
Take `CC(=O)Nc1ccc(S(=O)(=O)N2CCN(C(=O)CCC3CCCC3)CC2)cc1`: the “hERG current change (%, negative = inhibition) at 1uM” value was found to be 9.49%.
In the case of `CCCCCC(=O)NC(=S)NNC(=O)c1ccc([N+](=O)[O-])cc1` it was 19.4%; in that of `O=C(Nc1nnc(SCc2ccc(Cl)cc2)s1)C1CCCO1` (stereo not drawn), 7.43%; in that of `C(=N\n1cnnc1)/c1ccc(OCc2cccc3ccccc23)cc1`, -0.106%.
In the case of `CCOC(=O)c1c(C)oc2cc(Br)c(OC(C)C(=O)OCC)cc12` (stereo not drawn) it was -1.76%.
In the case of `COc1cc(C(=O)Nc2ccc(C)cn2)c([N+](=O)[O-])cc1OC` it was 10.2%; in that of `C=C(C)CN=C1NN=C(c2cc(C)n(-c3ccc(C)cc3)c2C)CS1`, 9.93%; in that of `O=C(N/N=C/c1ccccc1O)c1ccncc1`, 11%.
`CN(C(=O)CSc1nnc(-c2ccncc2)n1Cc1ccccc1)C1CCS(=O)(=O)C1` (stereo not drawn): the “hERG current change (%, negative = inhibition) at 1uM” value is 9.18%.
Under `Cc1ccc(N(CC#N)C(=O)CS(=O)(=O)c2cccc([N+](=O)[O-])c2)cc1` stands 4.93%.
Under `C/C(=C/C(=O)Nc1cccc(F)c1)N1CCCC1` stands 18.3%.
Under `Cc1cccc(CS(=O)(=O)c2ncc(CO)n2C)c1` stands 10.5%; under `O=C(CSc1ccccn1)Nc1ccc2c(c1)C(=O)c1ccccc1C2=O`, 14.2%; under `Cc1noc(C)c1C(=O)Nc1sc2c(c1C(N)=O)CCC2`, 3.09%.
As to `CC(C)(C)c1nn(-c2ccccc2)c2[nH]c(=O)c(CNc3ccc4c(c3)OCCO4)cc12`, the “hERG current change (%, negative = inhibition) at 1uM” value stood at 11%.
In the case of `COc1ccc(-c2coc3cc(O)ccc3c2=O)cc1O` it was 5.96%; in that of `Cc1ccc(NC(=O)CCC(=O)NNS(=O)(=O)c2ccccc2)cc1C`, -7.84%.
For the compound `CCNC(=S)NNc1nnc(-c2ccccc2)c(-c2ccccc2)n1`, the “hERG current change (%, negative = inhibition) at 1uM” value was 10.4%.
Consider `Cn1c(SCc2ccc(C#N)cc2Cl)nc2ccccc21`, for which the “hERG current change (%, negative = inhibition) at 1uM” value is -0.0907%.
Under `O=C(COC(=O)c1ccc([N+](=O)[O-])cc1Cl)Nc1cccnc1Cl` stands 14.5%.
Under `CCCCCN1C(=O)/C(=C/c2c(N3CCc4ccccc4C3)nc3ccccn3c2=O)SC1=S` stands 11.4%; under `CC(=O)c1ccc(NC(=O)COc2ccccc2C(=O)Nc2ccc(C)cn2)cc1`, 11.8%; under `CS(=O)(=O)N1CCN(c2c(Cl)cccc2[N+](=O)[O-])CC1`, 1.46%.
Turning to `Nc1ccc2oc(-c3ccccc3Cl)nc2c1`, the “hERG current change (%, negative = inhibition) at 1uM” value is recorded as -2.3%.
Under `COc1ccc(NC(=S)Nc2cc(C)cc(C)n2)cc1OC` stands 9.28%; under `CCOC(=O)N1CCN(C(=O)C2CCN(S(=O)(=O)c3ccc(Br)s3)CC2)CC1`, -8.34%.
Under `Cc1ccc(N2CC(NS(=O)(=O)c3cccnc3)CC2=O)cc1C` (stereo not drawn) stands 21.3%; under `Cc1cccn2c(=O)c3cc(C(=O)NCCCN4CCCC4=O)n(C)c3nc12`, 10.4%; under `O=C1OC(Nc2ncccn2)c2ccccc21` (stereo not drawn), 14.8%.
Turning to `CN1CCSc2ccc(C(=O)Nc3cc(F)ccc3F)cc21`, the “hERG current change (%, negative = inhibition) at 1uM” value was found to be 18.8%.
In the case of `CN(CC(=O)Nc1ccc(F)cc1)C(=O)C1CC(=O)N(Cc2ccccc2)C1` (stereo not drawn) it was 3.76%; in that of `CSc1ccc(S(=O)(=O)N2CCC(C(=O)NCCc3ccccc3)CC2)cc1`, 14.1%.
Consider `Cc1nnc(NC(=O)CSc2ccc3nnc(-c4cccnc4)n3n2)s1`, for which the “hERG current change (%, negative = inhibition) at 1uM” value is listed as 4.43%.
Take `CC(C)c1ccc(NC(=O)C2C3C=CC(CC3)C2C(=O)O)cc1` (stereo not drawn): the “hERG current change (%, negative = inhibition) at 1uM” value is on record as -12.2%.
Under `COc1ccc(NC2CCCN(C(=O)c3ccncc3)C2)cc1` (stereo not drawn) stands 22.5%; under `O=c1[nH]cc(N=Cc2cc([N+](=O)[O-])ccc2O)c(=O)[nH]1`, 15.8%; under `CCc1c(C)nc(N)n2c(SCC(=O)NC3CCCCC3)nnc12`, 2.11%.
In the case of `CC(C)(C)SCCNC(=O)c1ccccc1` it was 0.759%; in that of `CCc1ccc(NC(=O)C(C)OC(=O)CCC(=O)c2cccs2)cc1` (stereo not drawn), -3%.
In the case of `Nc1nc(SCC(=O)N2CCOCC2)[nH]c(=O)c1-c1ccccc1` it was 16.1%; in that of `CCn1cc(CN2CCc3c([nH]c4ccccc34)C2c2cccc(O)c2)c(C)n1` (stereo not drawn), 6.25%.
Take `CC(=O)c1cccc(NC(=O)c2c(F)c(F)c(F)c(F)c2F)c1`: the “hERG current change (%, negative = inhibition) at 1uM” value was -0.51%.
In the case of `COC(=O)c1ccccc1NC(=O)Cn1cc2c(n1)CCC(C)C2` (stereo not drawn) it was 7.05%.
In the case of `COCCn1nnnc1SCC(=O)c1ccccc1` it was 6.62%.
In the case of `O/N=C1/C2C3C(Br)C4C5CC(C1C53)C24` (stereo not drawn) it was 12.2%.
As for `Cc1ccc(C(=O)N[C@H](C(=O)OCC(=O)NC2CCS(=O)(=O)C2)C(C)C)cc1` (stereo partly drawn), the “hERG current change (%, negative = inhibition) at 1uM” value was found to be 19.4%.
In the case of `COc1ccc(C(=O)OCC(=O)Nc2cc(S(=O)(=O)N3CCOCC3)ccc2N2CCCC2)cc1` it was 11.9%; in that of `CCCc1nnc(NC(=O)CCC(=O)NCCc2ccc(OC)c(OC)c2)s1`, -9.94%.
In the case of `O=C(Cn1nc(-c2ccc(Cl)cc2)ccc1=O)NCC1CCCO1` (stereo not drawn), the “hERG current change (%, negative = inhibition) at 1uM” value amounted to 2.32%.
In the case of `O=C(CNC(=O)c1ccccc1F)Nc1ccncc1`, the “hERG current change (%, negative = inhibition) at 1uM” value was 16.3%.
As for `COc1cc(C(=O)NCc2ccc(-n3cccc3)cc2)cc(OC)c1OC`, the “hERG current change (%, negative = inhibition) at 1uM” value turned out to be 16.9%.
Under `CCN1CCN(C(=S)c2ccc(Cl)c(Cl)c2)CC1` stands -11.3%.
